Data: PMC3738564
Results are given in words; binding and its absence hold for the method and conditions named. Binding seen in cells or lysates may run through a third protein. Some results given as binding are weak or reduced against the parent protein; the word gives no strength. Values belong to the binder of their own block, whether it stands above or below them.

Amino acid sequences for entries named in this document (tags omitted).
UniProt Q8CC27: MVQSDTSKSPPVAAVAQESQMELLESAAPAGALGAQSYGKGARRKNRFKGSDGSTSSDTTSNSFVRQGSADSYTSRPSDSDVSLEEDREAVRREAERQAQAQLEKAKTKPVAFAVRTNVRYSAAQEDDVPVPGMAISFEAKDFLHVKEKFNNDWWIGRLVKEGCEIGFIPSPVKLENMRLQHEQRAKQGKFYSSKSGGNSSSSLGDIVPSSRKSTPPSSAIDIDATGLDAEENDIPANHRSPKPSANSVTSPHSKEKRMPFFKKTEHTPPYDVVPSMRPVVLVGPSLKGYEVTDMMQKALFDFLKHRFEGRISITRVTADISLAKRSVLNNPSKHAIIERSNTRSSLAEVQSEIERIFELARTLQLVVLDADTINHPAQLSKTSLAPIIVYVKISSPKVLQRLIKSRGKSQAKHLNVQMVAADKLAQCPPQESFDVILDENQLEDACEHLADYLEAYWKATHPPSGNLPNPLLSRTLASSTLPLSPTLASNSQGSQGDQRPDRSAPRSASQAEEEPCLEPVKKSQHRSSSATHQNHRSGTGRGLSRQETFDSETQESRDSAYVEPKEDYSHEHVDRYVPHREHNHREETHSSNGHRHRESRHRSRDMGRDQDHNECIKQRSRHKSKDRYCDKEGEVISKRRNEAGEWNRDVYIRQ
UniProt P11531: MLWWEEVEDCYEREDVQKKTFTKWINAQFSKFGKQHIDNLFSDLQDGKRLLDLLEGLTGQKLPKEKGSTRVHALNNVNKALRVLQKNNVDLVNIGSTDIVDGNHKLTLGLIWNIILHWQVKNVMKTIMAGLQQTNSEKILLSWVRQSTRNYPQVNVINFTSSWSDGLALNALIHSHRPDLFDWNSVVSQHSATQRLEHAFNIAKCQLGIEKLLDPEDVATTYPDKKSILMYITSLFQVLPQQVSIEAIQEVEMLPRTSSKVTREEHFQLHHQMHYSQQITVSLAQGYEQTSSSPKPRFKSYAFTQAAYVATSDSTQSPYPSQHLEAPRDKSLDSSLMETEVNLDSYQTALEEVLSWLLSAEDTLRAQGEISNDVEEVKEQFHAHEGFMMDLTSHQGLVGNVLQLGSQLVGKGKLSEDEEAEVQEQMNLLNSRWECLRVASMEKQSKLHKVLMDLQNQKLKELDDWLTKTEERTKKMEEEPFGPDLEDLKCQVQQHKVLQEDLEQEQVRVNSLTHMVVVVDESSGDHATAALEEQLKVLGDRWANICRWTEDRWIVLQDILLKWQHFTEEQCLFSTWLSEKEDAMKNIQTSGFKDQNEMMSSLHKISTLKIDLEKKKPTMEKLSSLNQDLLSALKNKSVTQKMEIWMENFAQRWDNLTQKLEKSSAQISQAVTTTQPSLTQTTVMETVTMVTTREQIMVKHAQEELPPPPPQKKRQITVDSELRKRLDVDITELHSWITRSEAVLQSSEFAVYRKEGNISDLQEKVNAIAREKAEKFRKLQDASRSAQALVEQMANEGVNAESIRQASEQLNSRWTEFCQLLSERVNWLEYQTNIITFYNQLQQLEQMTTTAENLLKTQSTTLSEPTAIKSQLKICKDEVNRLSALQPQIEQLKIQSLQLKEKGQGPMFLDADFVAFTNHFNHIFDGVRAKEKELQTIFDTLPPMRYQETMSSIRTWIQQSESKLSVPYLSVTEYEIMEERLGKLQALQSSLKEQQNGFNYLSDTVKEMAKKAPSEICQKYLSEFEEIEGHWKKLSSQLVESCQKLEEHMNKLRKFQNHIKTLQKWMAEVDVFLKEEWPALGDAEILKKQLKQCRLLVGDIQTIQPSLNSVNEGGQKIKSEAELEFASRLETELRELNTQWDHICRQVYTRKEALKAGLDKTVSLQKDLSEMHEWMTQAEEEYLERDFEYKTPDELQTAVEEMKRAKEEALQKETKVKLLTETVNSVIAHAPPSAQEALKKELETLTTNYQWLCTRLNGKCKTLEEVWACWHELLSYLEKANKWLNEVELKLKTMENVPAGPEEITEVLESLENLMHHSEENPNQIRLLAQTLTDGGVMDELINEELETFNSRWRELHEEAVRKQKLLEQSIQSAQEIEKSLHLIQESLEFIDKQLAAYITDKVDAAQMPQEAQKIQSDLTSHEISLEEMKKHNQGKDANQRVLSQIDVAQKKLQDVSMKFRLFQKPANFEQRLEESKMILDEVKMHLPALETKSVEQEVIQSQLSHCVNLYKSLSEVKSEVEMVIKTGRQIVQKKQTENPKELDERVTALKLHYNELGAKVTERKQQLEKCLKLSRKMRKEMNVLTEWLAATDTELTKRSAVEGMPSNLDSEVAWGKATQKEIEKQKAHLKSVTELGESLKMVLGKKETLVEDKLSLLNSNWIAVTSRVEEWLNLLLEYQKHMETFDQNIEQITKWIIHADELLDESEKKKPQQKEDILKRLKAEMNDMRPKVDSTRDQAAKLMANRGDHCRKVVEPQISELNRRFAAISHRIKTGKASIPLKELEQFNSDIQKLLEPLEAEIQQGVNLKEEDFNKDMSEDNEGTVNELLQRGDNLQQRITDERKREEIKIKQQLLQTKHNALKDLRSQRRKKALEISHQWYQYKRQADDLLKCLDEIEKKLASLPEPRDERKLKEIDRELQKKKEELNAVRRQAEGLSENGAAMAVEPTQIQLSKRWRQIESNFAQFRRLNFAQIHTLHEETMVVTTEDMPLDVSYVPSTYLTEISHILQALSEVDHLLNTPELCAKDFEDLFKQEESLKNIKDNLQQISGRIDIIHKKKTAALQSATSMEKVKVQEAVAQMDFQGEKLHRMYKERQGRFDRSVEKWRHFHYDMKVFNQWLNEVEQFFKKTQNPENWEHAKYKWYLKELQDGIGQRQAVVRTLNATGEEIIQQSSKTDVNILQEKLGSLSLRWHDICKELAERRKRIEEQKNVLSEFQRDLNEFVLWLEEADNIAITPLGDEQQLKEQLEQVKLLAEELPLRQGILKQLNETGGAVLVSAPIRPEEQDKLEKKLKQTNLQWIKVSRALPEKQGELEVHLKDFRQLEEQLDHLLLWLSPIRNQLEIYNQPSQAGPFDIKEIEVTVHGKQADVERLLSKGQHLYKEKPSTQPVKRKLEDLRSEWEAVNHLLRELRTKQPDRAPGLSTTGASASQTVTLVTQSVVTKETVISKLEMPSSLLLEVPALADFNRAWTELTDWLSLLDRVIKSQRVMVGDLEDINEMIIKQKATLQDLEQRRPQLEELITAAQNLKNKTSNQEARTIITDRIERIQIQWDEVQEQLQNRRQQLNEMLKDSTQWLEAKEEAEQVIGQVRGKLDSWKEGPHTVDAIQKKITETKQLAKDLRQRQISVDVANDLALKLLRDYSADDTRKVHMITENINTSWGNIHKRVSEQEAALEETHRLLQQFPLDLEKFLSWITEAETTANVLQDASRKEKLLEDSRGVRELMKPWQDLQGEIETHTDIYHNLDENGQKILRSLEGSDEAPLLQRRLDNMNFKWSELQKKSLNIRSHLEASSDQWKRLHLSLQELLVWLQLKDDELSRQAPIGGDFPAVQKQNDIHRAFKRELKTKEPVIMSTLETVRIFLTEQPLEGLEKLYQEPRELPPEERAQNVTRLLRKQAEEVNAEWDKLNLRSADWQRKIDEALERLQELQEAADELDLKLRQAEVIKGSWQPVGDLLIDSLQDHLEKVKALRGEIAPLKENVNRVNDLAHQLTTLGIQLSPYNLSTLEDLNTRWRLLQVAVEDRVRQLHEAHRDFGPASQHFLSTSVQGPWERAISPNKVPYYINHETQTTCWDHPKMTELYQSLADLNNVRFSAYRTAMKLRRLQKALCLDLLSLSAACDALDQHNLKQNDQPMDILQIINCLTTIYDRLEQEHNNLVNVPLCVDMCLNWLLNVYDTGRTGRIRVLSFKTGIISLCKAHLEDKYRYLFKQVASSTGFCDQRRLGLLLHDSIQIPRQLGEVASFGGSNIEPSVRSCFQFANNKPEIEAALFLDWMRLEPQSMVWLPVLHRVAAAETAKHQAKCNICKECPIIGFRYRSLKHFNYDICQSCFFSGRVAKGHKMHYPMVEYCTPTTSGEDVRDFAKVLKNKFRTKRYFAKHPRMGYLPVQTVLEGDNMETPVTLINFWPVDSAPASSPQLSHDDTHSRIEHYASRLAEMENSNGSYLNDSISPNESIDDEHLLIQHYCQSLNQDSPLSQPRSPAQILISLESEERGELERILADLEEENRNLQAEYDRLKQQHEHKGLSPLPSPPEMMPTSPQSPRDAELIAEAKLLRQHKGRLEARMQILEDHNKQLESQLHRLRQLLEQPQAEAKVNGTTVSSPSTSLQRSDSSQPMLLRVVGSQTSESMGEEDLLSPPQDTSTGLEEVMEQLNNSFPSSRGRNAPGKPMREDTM

How the values were obtained:
[1] = target: β2-regulatory subunit of voltage gated calcium channels (Cavβ2) (mouse (endogenous in skeletal muscle)) (UniProt Q8CC27); experiment: co-IP; reverse immunoprecipitation with an antibody to Cavβ2 from wild type quadriceps lysate (1% digitonin, 0.05% NP-40); control antibody MW8; Western blot
[2] = target: T1, Polymerase I and transcript release factor (Cavin-1) (mouse) (UniProt O54724); experiment: co-IP; reverse immunoprecipitation with an antibody to Cavin-1 from wild type quadriceps lysate (1% digitonin, 0.05% NP-40); control Rabbit-anti-Goat IgG; Western blot
T1 sequence: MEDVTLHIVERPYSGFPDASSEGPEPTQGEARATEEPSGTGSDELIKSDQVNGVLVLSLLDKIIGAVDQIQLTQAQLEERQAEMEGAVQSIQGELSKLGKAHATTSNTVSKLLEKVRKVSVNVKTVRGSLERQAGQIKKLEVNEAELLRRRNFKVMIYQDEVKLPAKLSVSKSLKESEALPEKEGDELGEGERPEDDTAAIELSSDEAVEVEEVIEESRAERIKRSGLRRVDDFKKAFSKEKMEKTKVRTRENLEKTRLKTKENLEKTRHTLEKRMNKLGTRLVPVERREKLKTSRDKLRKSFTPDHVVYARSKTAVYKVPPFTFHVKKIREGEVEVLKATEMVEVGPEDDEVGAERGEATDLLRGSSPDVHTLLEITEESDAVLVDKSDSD

[3] = target: T2, β-dystroglycan (mouse (endogenous in skeletal muscle)) (UniProt Q62165); experiment: co-IP; β-dystroglycan precipitated with MANDAG2 from mdx (dystrophin-deficient) mouse quadriceps lysate (1% digitonin, 0.05% NP-40); Western blot
T2 sequence: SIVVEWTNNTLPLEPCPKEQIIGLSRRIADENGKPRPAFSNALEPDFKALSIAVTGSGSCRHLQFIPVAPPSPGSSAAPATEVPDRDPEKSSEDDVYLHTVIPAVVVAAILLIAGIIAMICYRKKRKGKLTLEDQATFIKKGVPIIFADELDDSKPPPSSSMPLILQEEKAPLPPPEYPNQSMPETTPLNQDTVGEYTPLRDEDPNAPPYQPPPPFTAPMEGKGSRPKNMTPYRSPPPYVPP

[4] = target: T2, β-dystroglycan (mouse (endogenous in skeletal muscle)); experiment: co-IP; β-dystroglycan precipitated with MANDAG2 on protein G beads from wild type mouse quadriceps lysate (1% digitonin, 0.05% NP-40; 1 mg protein); Western blot; also done on mdx and mdx/Utrn-/- lysates
[5] = target: T2, β-dystroglycan (mouse (endogenous in skeletal muscle)); experiment: condition: only in mdx/Utrn-/- muscle (no dystrophin, no utrophin); co-IP; β-dystroglycan precipitated with MANDAG2 from mdx/Utrn-/- (no dystrophin, no utrophin) mouse quadriceps lysate (1% digitonin, 0.05% NP-40); Western blot
[6] = target: full length (427 kDa) dystrophin (mouse (endogenous in skeletal muscle)) (UniProt P11531); experiment: co-IP; dystrophin precipitated with a second monoclonal antibody (ab14452 coupled to agarose beads; called DYS1 in the legend) from wild type mouse skeletal muscle in PBS pH 7.5 with 0.5% Triton X-100; 4 °C overnight; Western blot
[7] = target: full length (427 kDa) dystrophin (mouse (endogenous in skeletal muscle)) (UniProt P11531); experiment: co-IP; dystrophin precipitated with MANDYS1 on protein G beads from wild type mouse quadriceps lysate (1% digitonin, 0.05% NP-40); Western blot
[8] = target: T3, α-dystroglycan (mouse (endogenous in skeletal muscle)), Q62165; experiment: pull-down; α-dystroglycan held by its carbohydrates on wheat germ agglutinin agarose beads; wild type mouse skeletal muscle solubilised in PBS pH 7.5 with 0.5% Triton X-100; 4 °C overnight; Western blot; conditions: remark: other sources report otherwise
T3 chain: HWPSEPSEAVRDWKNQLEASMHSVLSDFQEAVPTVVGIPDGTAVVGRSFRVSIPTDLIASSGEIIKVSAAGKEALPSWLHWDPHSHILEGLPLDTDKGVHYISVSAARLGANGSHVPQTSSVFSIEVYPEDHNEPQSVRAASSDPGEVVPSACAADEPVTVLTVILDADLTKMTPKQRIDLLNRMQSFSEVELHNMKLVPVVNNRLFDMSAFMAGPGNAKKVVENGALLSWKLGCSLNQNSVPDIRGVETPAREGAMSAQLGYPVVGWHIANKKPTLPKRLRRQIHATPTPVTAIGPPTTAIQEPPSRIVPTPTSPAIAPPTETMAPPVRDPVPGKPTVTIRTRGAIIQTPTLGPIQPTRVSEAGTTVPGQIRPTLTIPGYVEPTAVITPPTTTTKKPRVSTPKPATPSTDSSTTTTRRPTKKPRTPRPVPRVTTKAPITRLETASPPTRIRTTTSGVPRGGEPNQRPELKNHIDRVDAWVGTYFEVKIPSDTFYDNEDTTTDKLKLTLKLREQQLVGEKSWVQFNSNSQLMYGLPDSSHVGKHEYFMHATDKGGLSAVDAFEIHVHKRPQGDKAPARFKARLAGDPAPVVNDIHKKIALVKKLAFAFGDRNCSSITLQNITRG

[9] = target: T2, β-dystroglycan (mouse (endogenous in skeletal muscle)); experiment: co-IP; β-dystroglycan precipitated with MANDAG2 from mdx/Utrn-/- (no dystrophin, no utrophin) mouse quadriceps lysate (1% digitonin, 0.05% NP-40); Western blot

B1: caveolin 3 (protein, UniProt P51637 1-151)
chain: MMTEEHTDLEARIIKDIHCKEIDLVNRDPKNINEDIVKVDFEDVIAEPEGTYSFDGVWKVSFTTFTVSKYWCYRLLSTLLGVPLALLWGFLFACISFCHIWAVVPCIKSYLIEIQCISHIYSLCIRTFCNPLFAALGQVCSNIKVVLRREG
binding [1]: no binding
binding [2]: binds

B2: Polymerase I and transcript release factor (Cavin-1) (protein, UniProt O54724 1-392)
chain: T1 sequence
binding [3]: no binding (condition: in mdx muscle (no dystrophin))
binding [1]: no binding
binding [4]: binds
binding [5]: no binding

B3: α-dystroglycan (protein, UniProt Q62165 28-651)
chain: T3 chain
modifications: highly glycosylated; carbohydrate moieties bound by wheat germ agglutinin
binding [6]: binds
binding [7]: binds

B5: β-dystroglycan (protein, UniProt Q62165 652-893)
chain: T2 sequence
binding [1]: binds
binding [6]: binds
binding [2]: binds
binding [7]: binds

The next lines start with results.

binding [8]: binds
B4: β-dystroglycan, Q62165 652-893 (protein)
chain: T2 sequence
modifications: here or on the partner: highly glycosylated; carbohydrate moieties bound by wheat germ agglutinin

binding [9]: binds weakly
B6: β-sarcoglycan (protein, UniProt P82349 1-320)
chain: MAAAAAAAAATEQQGSNGPVKKSMREKAVERRNVNKEHNSNFKAGYIPIDEDRLHKTGLRGRKGNLAICVIVLLFILAVINLLITLVIWAVIRIGPNGCDSMEFHESGLLRFKQVSDMGVIHPLYKSTVGGRRNENLVITGNNQPIVFQQGTTKLSVEKNKTSITSDIGMQFFDPRTHNILFSTDYETHEFHLPSGVKSLNVQKASTERITSNATSDLNIKVDGRAIVRGNEGVFIMGKTIEFHMGGDVELKAENSIILNGTVMVSPTRLPSSSSGDQSGSGDWVRYKLCMCADGTLFKVQVTGHNMGCQVSDNPCGNTH
binding [3]: no binding (condition: in mdx muscle (no dystrophin))
